The campaign covered roughly 48,000 compounds. About 450 (0.94%) were called active. Not shown: some 19% with an inconclusive outcome. Calls come from the whole dose curve; as a rule, active = well fitted inhibition curve with a large enough effect; inconclusive = small, poorly fitted or top-dose-only effect; inactive = no such curve, though single readings can be large or run the other way. Some of the results follow.
experiment: Primary qHTS for Identification of Small Molecule Inhibitors of Huntingtin Promoter Activity; settings: HEK293 HTT promoter firefly luciferase reporter (activity 0% = vehicle and -100% = no light), 24 h; series mostly up to 57.5 µM; activity change, negative = inhibition: at the top concentration; note: nearly all actives have a fitted effect of over 50% in size
How it was run: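 Firefly luciferase readout (Dual-Glo, 10 min RT) after 24 h, 37 °C compound exposure (final up to 57.5 uM) of HEK293 reporter cells cultured 24 h beforehand; PTC124 at 50 uM final as control inhibitor; activity scaled vehicle 0%, zero RLU -100%.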
Potency is the fitted concentration of half-maximal effect.

| Structure (SMILES) | activity change, negative = inhibition | Potency |
| --- | --- | --- |
| Cc1cc(Br)ccc1NC(=O)c1sc2nc3n(c(=O)c2c1C)CCCC3 | inactive: 22.3% | – |
| COc1ccc(Cl)cc1C(=O)Nc1nnc2n1CCS2 | inactive: -2.23% | – |
| C=Cc1ccc(Cn2c(=O)n(-c3cccc(Cl)c3)c(=O)c3c4c(sc32)CN(C(C)=O)CC4)cc1 | inactive: -36.1% | – |
| COCCCNC(=O)CCn1c(=O)c2ccccc2n(CC(=O)Nc2cc(Cl)ccc2OC)c1=O | inactive: -5.3% | – |
| CN1C(C(=O)Nc2cccc(O)c2)=CC(c2ccco2)=NS1(=O)=O | inactive: -24.8% | – |
| Cc1cccc(N2CCn3c2nc2c3c(=O)n(C/C=C/c3ccccc3)c(=O)n2C)c1 | inactive: -6.35% | – |
| CCCCN(CC)c1nc(-c2ccccc2F)nc2ccccc12 | inactive: -9.09% | – |
| Cc1cc(C)c(NC(=O)Cn2nnc(S(=O)(=O)c3ccc(C)c(C)c3)c2N)c(C)c1 | inactive: -21.3% | – |
| CC(=O)c1ccc(NC(=O)C2CCN(c3nnc(C)c4c(C)n(-c5ccccc5)nc34)CC2)cc1 | inactive: -9.28% | – |
| Cc1ccc(-c2cc(C(=O)N3CCN(S(=O)(=O)c4ccc(Br)cc4)CC3)[nH]n2)c(C)c1 | inactive: -4.23% | – |
| CC(C)OCCCn1c(=O)c2ccccc2n2c(-c3ccccc3)nnc12 | inactive: 0.39% | – |
| O=C(Cc1ccccc1)Nc1sc2c(c1C(=O)Nc1cccc(Cl)c1)CCCCC2 | inactive: -5.62% | – |
| CCc1nn2c(=O)cc(COC(=O)Cc3ccccc3)nc2s1 | inactive: -4.12% | – |
| Cc1ccc(S(=O)(=O)c2cn(Cc3ccccc3)c3cc(N4CCCCC4)c(F)cc3c2=O)cc1 | inactive: 9.83% | – |
| CC(C)CCOc1ccc(Cn2c(=O)oc3ccccc32)cc1 | inactive: 10.2% | – |
| COc1ccc(NC(=O)CSC2=Nc3ccccc3C3=NC(CC(=O)NCCc4ccccc4)C(=O)N23)cc1 (stereo not given) | inactive: 3.9% | – |
| O=C(NCc1ccco1)c1ccc(Cn2c(SCc3ccccc3)nc3cccnc32)cc1 | inactive: -9.27% | – |
| COc1cc(OC)c(NC(=O)CCS(=O)(=O)c2ccc3c(c2)oc(=O)n3C)cc1Cl | inactive: -2.22% [at 11.5 µM] | – |
| CCc1ccc(CNC(=O)C2COc3ccc(OC)cc3C2)cc1 (stereo not given) | inactive: -14% | – |
| CN(Cc1ccccc1)C(=O)CSc1nnc(-c2cccc(Cl)c2)o1 | inactive: 1.2% | – |

| Structure (SMILES) | activity change, negative = inhibition | Potency |
| --- | --- | --- |
| CCOC(=O)c1c(C)sc(-c2c(-c3ccccc3)[nH]c3[nH]c(=O)[nH]c(=O)c23)c1O | inactive: -9.75% | – |
| COc1ccc(-c2noc(-c3ccc(N4CCOCC4)c([N+](=O)[O-])c3)n2)cc1 | inactive: -9.1% | – |
| CC1=C(C(=O)Nc2ccccc2C)C(c2cccs2)n2nc(SCc3ccccc3)nc2N1 (stereo not given) | inactive: -21.1% | – |
| O=C(Cn1ncc2c(Cl)cccc21)NCc1cccc(Cl)c1 | inactive: -14.2% | – |
| CCc1ccc(-n2nc(CO)c(C(=O)NCCOC)n2)cc1 | inactive: 28.9% | – |
| Cc1scc(CN2CCN(c3ccccc3F)CC2)c1C | inactive: 0.721% | – |
| Cc1ccc(CN(C(=O)COc2ccccc2Cl)c2ccccn2)o1 | inactive: 38.4% | – |
| Cc1cccc(NC(=O)Cn2c(=O)n(Cc3ccc4c(c3)OCO4)c(=O)c3oc4ccccc4c32)c1C | inactive: -8.04% | – |
| Cc1ccc(CNS(=O)(=O)c2ccc(C(=O)N(C)C)s2)cc1 | inactive: -18.9% | – |
| CC(C)(C)C1CCc2c(sc(NC(=O)C3c4ccccc4Oc4ccccc43)c2C(N)=O)C1 (stereo not given) | inactive: -13.7% | – |
| CCn1cc(S(=O)(=O)c2cc(C)cc(C)c2)c(=O)c2cc(F)c(N3CCCCC3)cc21 | inactive: -20.1% | – |
| CCC(=O)N1c2ccc(S(=O)(=O)CCC(=O)NCc3ccccc3OC)cc2CC1C (stereo not given) | inactive: 6.54% | – |
| CC(=O)N1CCc2cc(Br)cc(S(=O)(=O)N3CCC(C(=O)Nc4cccc(C)c4C)CC3)c21 | inactive: 7.54% | – |
| COC(=O)c1nnn(CC(=O)NC(=O)Nc2ccc(F)cc2)c1C(=O)OC | inactive: -11.2% | – |
| O=C(Nc1ccc(S(=O)(=O)N2CCC(c3nc4ccccc4s3)CC2)cc1)c1ccccc1 | inactive: -0.968% | – |
| CC1CCCCN1Cc1c(O)ccc2c(=O)c(-c3ccccc3Cl)c(C(F)(F)F)oc12 (stereo not given) | inactive: -4.38% | – |
| CCCCn1c(CNC(=O)C23CC4CC(CC(C4)C2)C3)nnc1SCC(=O)Nc1ccc(C)cc1 | inactive: -31.7% | – |
| COCCSc1nc2c([nH]c3ccccc32)c(=O)n1-c1ccc(OC)c(OC)c1 | inactive: -22.5% | – |
| Cc1ccc(C2CC(=O)Nc3cc4c(cc32)OCCO4)cc1Br (stereo not given) | – | active: 25.1 µM |
| CCOc1ccc(CCNC(=O)c2cc(=O)[nH]c3ccc(S(=O)(=O)N4CCCCC4C)cc23)cc1OCC (stereo not given) | inactive: -25.7% | – |

| Structure (SMILES) | activity change, negative = inhibition | Potency |
| --- | --- | --- |
| COCCNC(=O)Cn1ccc2cc(S(=O)(=O)N3CCCCCC3)ccc21 | inactive: -6.81% | – |
| CCn1c(=O)c2c(nc3n2CCN3c2ccc(OC)cc2)n(C)c1=O | inactive: 4.42% | – |
| COc1ccc(CNC(=O)CCc2c(C)nc3c(c(C)nn3-c3ccccc3)c2C)cc1 | inactive: -1.27% | – |
| CCOC(=O)c1c(C)n(-c2ccc(OC)cc2)c2ccc(OC(=O)COc3ccccc3)cc12 | inactive: -31.2% | – |
| CN1C[C@H]2c3ccccc3Oc3ccc(Cl)cc3[C@@H]2C1 | inactive | – |
| c1ccc([C@H]2CN3CCSC3=N2)cc1 | inactive | – |
| CC(C)c1nnc(N2C(=O)c3oc4ccccc4c(=O)c3C2c2ccccc2F)s1 (stereo not given) | inactive: -10.5% [at 11.5 µM] | – |
| CN(C)CC/C=C1\c2ccccc2Sc2ccc(Cl)cc21 | inactive: -17% | – |
| Cc1cc2c(cc1S(=O)(=O)Nc1cccc(C#N)c1)OCC(=O)N2 | inactive: 4.37% | – |
| O=C(Cn1ncc2c3ccccc3n(Cc3ccccc3F)c2c1=O)NCc1ccccc1Cl | inactive: -11.3% | – |
| N#Cc1ccc(-c2cccs2)nc1SCc1ccc(Br)cc1 | inactive: 12.7% | – |
| COc1ccc(-n2nc(C(=O)N3CCCCC3C)c3c4ccccc4n(C)c3c2=O)cc1Cl (stereo not given) | inactive: 10.2% | – |
| COc1ccc(CNC(=O)CN(C)S(=O)(=O)c2ccc3nc(C)sc3c2)cc1 | inactive: -16.6% | – |
| COc1cccc(C(=O)Nc2ccccc2C(=O)OCc2cc(=O)n3c4c(sc3n2)CCCC4)c1 | inactive: -25.6% | – |
| Cc1coc2c(C)c3oc(=O)c(CCC(=O)NCCc4ccccc4F)c(C)c3cc12 | inactive: -11.5% | – |
| CCOC(=O)c1ccc(NC(=O)Cn2c(=O)cc(C)c3c(C)nn(-c4ccc(CC)cc4)c32)cc1 | inactive: -28.9% | – |
| COc1cccc(/C=C/c2nc(C#N)c(N3CCC(C(N)=O)CC3)o2)c1 | inactive: -1.06% | – |
| CCOc1ccc(CCNC(=O)c2cn(-c3ccc(OC)cc3)c(=O)c3ccccc23)cc1OCC | inactive: -15.9% | – |
| COc1ccc(NC(=O)Cn2c(=O)n(CCC(=O)NCC3CCCO3)c(=O)c3cc(OC)c(OC)cc32)cc1 (stereo not given) | inactive: -16.1% | – |
| COc1ccccc1Nc1sc(C(=O)c2ccc(F)cc2)c(N)c1S(=O)(=O)c1ccc(C)cc1 | inactive: -29.1% | – |
